# Results published in patent US20190091296A1 (Regeneron, published 2019).
# Changes are numbered by the printed parent chain.
# B1: Comparator: GLP1 analogue having the amino acid sequence characteristics of LY2189265 fused to hIgG4 Fc domain (Fc fusion)
# chain: HGEGTFTSDVSSYLEEQAAKEFIAWLVKGGGGGGGSGGGGSGGGGSA[sequence of human IgG4 Fc with S228P F234A L235A (EU numbers) not given]
# B2: A-GLP1-hFc (Fc fusion)
# chain: AHAEGTFTSDVSSYLEGQAAKEFIAWLVKGRGGGGGSGGGGSGGGGS[sequence of human IgG1 Fc not given]
# B3: Q-GLP1-hFc (Fc fusion)
# chain: B2 chain with A1Q
# B4: desH-GLP1-hFc (Fc fusion)
# chain: AEGTFTSDVSSYLEGQAAKEFIAWLVKGRGGGGGSGGGGSGGGGS[sequence of human IgG1 Fc not given]
# B5: GLP1-hFc (Fc fusion)
# chain: HAEGTFTSDVSSYLEGQAAKEFIAWLVKGRGGGGGSGGGGSGGGGS[sequence of human IgG1 Fc not given]
# Molecular target: human GLP1 receptor (human, UniProt P43220 24-463)
# Assay: cell-based or functional assay
row,"EC50 (luciferase assay, cAMP-responsive Cre-Luc reporter cells) [nM]",Binder
1,0.059,B1
2,120,B2
3,135,B3
4,2560,B4
5,0.147,B5
